The values below come from PubChem BioAssay AID488969 (Vanderbilt High Throughput Screening Facility, 2010).

Molecules are shown by their SMILES. In all, about 110,000 compounds were measured (“z-score”: median about -0.1, highest 2% from about 2 on). The list shows a part of the results. Active and inactive are the calls of the source.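 Rule for the calls: active = z-score in the third read window above 3 or below -3; inactive = the rest.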

The target in this assay is Metabotropic glutamate receptor 8 (Rattus norvegicus) (UniProt P70579). Kind of assay: rat mGluR8 modulators via GIRK flux, primary screen, cell-based, thallium flux, HTS (AID 488969). The settings on record: HEK293 rat mGluR8, GIRK (G protein-gated inwardly rectifying potassium channel) thallium flux, FluoZin2; at 10 µM; stronger effect = higher value; submaximal glutamate (EC20) added with thallium.
UniProt P70579, sequence (P70579 whole entry, looked up): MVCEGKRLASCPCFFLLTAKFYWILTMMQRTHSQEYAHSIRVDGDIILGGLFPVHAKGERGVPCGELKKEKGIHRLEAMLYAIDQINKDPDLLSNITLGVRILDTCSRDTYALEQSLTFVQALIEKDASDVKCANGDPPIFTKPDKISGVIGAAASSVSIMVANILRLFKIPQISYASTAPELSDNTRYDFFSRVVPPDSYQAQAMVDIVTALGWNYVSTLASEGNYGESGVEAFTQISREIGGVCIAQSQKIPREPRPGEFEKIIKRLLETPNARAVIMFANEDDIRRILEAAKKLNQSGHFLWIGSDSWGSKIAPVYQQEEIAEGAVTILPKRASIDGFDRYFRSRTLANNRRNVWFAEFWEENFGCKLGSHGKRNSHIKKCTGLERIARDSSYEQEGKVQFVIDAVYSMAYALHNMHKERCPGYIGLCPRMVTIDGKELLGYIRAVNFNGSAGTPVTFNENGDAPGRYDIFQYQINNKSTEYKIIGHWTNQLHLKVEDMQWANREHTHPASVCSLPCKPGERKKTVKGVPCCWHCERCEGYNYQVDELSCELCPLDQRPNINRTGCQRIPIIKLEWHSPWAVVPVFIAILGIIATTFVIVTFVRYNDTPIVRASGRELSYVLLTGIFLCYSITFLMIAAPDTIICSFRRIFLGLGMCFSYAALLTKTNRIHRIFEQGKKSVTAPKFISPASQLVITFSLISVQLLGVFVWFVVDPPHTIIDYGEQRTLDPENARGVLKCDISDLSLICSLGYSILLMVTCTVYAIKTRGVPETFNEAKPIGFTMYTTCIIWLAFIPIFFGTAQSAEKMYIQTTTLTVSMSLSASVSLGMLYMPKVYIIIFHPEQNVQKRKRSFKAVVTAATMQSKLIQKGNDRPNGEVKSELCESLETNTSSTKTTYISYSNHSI
For the compound `S=C(Nc1ccc(Br)cc1)NC1CCCC1`, the z-score worked out at 0.487.
As to `Cc1ccccc1OCCn1c(=O)sc2ccccc21`, the z-score is 0.116.
`O=c1oc2cc(OCc3ccc([N+](=O)[O-])cc3)ccc2c2c1CCCC2` registered a z-score of 0.0141.
Under `CC1=Nc2ccccc2/C1=C\c1nc(-c2ccccc2)oc1O` stands -0.305.
Under `CC(=O)OCC1OC(OC(C)=O)C(NC(=O)c2cccnc2)C(OC(C)=O)C1OC(C)=O` (centres undefined) stands -0.202; under `O=C(Cn1cnc2c(oc3ccccc32)c1=O)N1CCCc2ccccc21`, -0.0875.
Under `COc1ccccc1CP(=O)(c1ccccc1)c1ccccc1` stands -0.364; under `COC(=O)c1nnn(CC(=O)Nc2cccc(Cl)c2)c1C(=O)OC`, -0.1; under `CCCC(c1nnnn1CS(=O)(=O)c1ccc(C)cc1)N1CCN(c2ccc(F)cc2)CC1` (centres undefined), -0.0181.
The compound `CC1CCCN(S(=O)(=O)Cc2ccc(Cl)cc2)C1` (centres undefined) returned a z-score of -0.884.
As to `COc1ccccc1N(CN1CCCC1=O)C(=O)c1c(F)cccc1Cl`, the z-score was found to be 0.241.
Consider `CCOC(=O)c1snc2c(=O)[nH]cnc12`, for which the z-score was -0.496.
Under `CCN(CC)c1ccc(NC(=O)c2c(OC)cccc2OC)c(C)c1` stands -0.524; under `COc1cccc(NC(=O)CSCC(=O)Nc2ccccc2)c1`, -0.472; under `CCCCOc1ccccc1C(=O)NCCCC(=O)O`, -0.417.
In the case of `O=C(CCNS(=O)(=O)c1cccs1)NCc1cccs1` it was -0.157.
Under `S=c1nccc(-c2cc(Cl)sc2Cl)[nH]1` stands 1.26; under `COC(=O)CCS(=O)(=O)c1ccc(Cl)cc1`, 0.957; under `CCOc1ccccc1C(=O)Nc1cnn(Cc2ccc(F)cc2)c1`, -0.749.
Take `CC1CCc2cccc3c2N1c1cc(C#N)c(C#N)cc1O3` (centres undefined): the z-score was -2.2.
`O=C(N/N=C/c1cccs1)c1cc(-c2cccc3ccccc23)n[nH]1` registered a z-score of 0.882.
In the case of `Cc1ccc(C(=O)N2CC(C)SC2=Nc2cccc(S(=O)(=O)N(C)C)c2)cc1` (centres undefined) it was -0.203; in that of `Cc1cccn2c(=O)c(C=Nc3ccc(Cl)cc3)c(NCCO)nc12`, -0.397.
Compound `COc1ccc(N2CCN(C(=O)C3(C)CC3(Cl)Cl)CC2)cc1` (centres undefined) came in with a z-score of -0.166.
Under `C/C(=N\N=C(/N)SC1CC(=O)N(c2ccc(Cl)cc2)C1=O)c1cccs1` (centres undefined) stands 0.416; under `Cc1ccc(-c2cc(C(=O)N3CCCC3)no2)cc1`, -0.457.
In the case of `Cc1noc(C)c1S(=O)(=O)N1CCC(Cc2ccccc2)CC1` it was 2.68; in that of `Cc1nc2c(c3c1[nH]c1ccccc13)C(=O)CC(C)(C)C2`, -0.219; in that of `Cc1cc(C)n(C(=O)C23CC4CC(CC(C4)C2)C3)n1`, 0.557.
Compound `C=C(C)Cn1c(CCCNC(=O)CC)nc2ccccc21` showed a z-score of 0.186.
In the case of `COc1cc(=O)n2c(n1)SCCC2` it was -0.228; in that of `c1cncc(-c2nnc(C3CCCCC3)o2)c1`, -0.866.
In the case of `O=C(O)CN=C1NC2(CCCC2)Cc2ccccc21` it was -0.31; in that of `Cc1ccc(OCCn2c(=O)cnc3ccccc32)cc1`, -0.0588; in that of `Cc1ccc(S(=O)(=O)N2CCOCC2)cc1C(=O)Nc1ccc2c(c1)CCC2`, -0.205.
Compound `Cc1cccc(-c2noc(-c3ccccc3C(=O)NCC3CCCO3)n2)c1` (centres undefined) had a z-score of -0.356.
Under `CC1=CC2CC1C1C(=O)N(c3ccc(S(=O)(=O)Nc4nc(C)cc(C)n4)cc3)C(=O)C21` (centres undefined) stands 0.305.
`COc1cc(-c2cn(S(=O)(=O)c3cccc4nsnc34)nc2N)cc(OC)c1OC` showed a z-score of -0.48.
In the case of `COC(=O)c1c(NC(=O)CSc2nc3ccccc3c(=O)n2-c2ccccc2)sc(C)c1C`, the z-score was found to be 0.0464.
Under `Fc1ccc(-c2oncc2-c2nnnn2-c2ccccc2)cc1F` stands -0.128; under `CC1CN(C(=O)c2c([N+](=O)[O-])cnn2C)CC(C)O1` (centres undefined), -0.148; under `O=C(NCCC1=CCCCC1)C1CCCN(S(=O)(=O)c2ccc(F)cc2)C1` (centres undefined), -0.0388.
Under `CCC1Oc2ccc(C)cc2N(CC(=O)NCCCN2CCCCC2CC)C1=O` (centres undefined) stands 0.21.
Under `COC(=O)c1[nH]c2ccc(C)cc2c1NC(=O)CN1CCC(C)CC1` stands -0.447; under `CCc1ccc(NC2=NCC(=O)N2c2ccc3c(c2)OCCO3)cc1`, 0.581; under `CN(C)c1cc(NC(=O)CN2CCOCC2)c2ccccc2n1`, 0.0658.
In the case of `Cc1ccc(NC(=O)Nc2ncccc2C)cc1`, the z-score is -1.32.
In the case of `COCc1c(Br)c(C)nc(OCC(=O)N/N=C/c2cc(C)n(-c3ccc([N+](=O)[O-])cc3)c2C)c1C#N` it was 0.601; in that of `O=C(CCCOc1ccccc1)N1CCCc2ccccc21`, -0.431; in that of `Cc1cc(C)c2c(=O)[nH]c(SCC(=O)NCc3ccccc3)nc2n1`, -0.395.
Under `Cc1nnc2sc(-c3csc4c3CCCC4)nn12` stands -0.0897.
Compound `CC(c1ccccc1)C1CC(=O)N(CC(=O)O)C1=O` (centres undefined) had a z-score of 0.578.
In the case of `CC(C)[C@H](NS(=O)(=O)c1ccccc1)C(=O)OCC(=O)Nc1ccccc1Sc1ccccc1` it was 0.0146.
Under `CC(=O)N1CCN=C1SCc1ccccc1` stands -0.898.
In the case of `CCCN1C(=O)C(O)(C2CC(=O)CC(C)(C)O2)c2ccccc21` (centres undefined) it was -0.328.
Turning to `COC(=O)c1ccc2c(=O)n(Cc3ccc(C(=O)NC4CCCC4)cc3)c(=S)[nH]c2c1`, the z-score was found to be 0.137.
Take `CC(C)(C)NS(=O)(=O)c1ccc(NS(=O)(=O)Cc2ccccc2)cc1`: the z-score was -0.00194.
The compound `CCCC1OC23CCCCC2C(C#N)(C(=N)O3)C1(C#N)C#N` (centres undefined) yielded a z-score of 0.553.
For `NC(=O)C1CCN(C(=O)CCc2nc3ccccc3c(=O)[nH]2)CC1`, the z-score was -0.321.
Under `COc1ccccc1N1CCN(C(=O)c2c(C)cc(=O)oc2C)CC1` stands -0.139.
Under `COc1ccccc1-c1nn2c(=O)cc(C)nc2s1` stands 0.198; under `Cc1cc(C)nc(Nc2ncc(O)n2-c2ccc(C)c(Cl)c2)n1`, 0.17; under `CC1NC(=O)NC1CCCCCC(=O)NCCc1ccccc1` (centres undefined), 0.551.
For the compound `COc1ccc(C2C3=C(N=C4SCC(=O)N42)c2ccccc2CC3)cc1` (centres undefined), the z-score is -0.955.
In the case of `Cc1nc2cc(-c3ccc(Cl)cc3)nn2c(C)c1CCC(=O)NCc1ccco1` it was -0.0434.
Compound `NC(=O)C1c2ccccc2CSc2ccccc21` (centres undefined) yielded a z-score of -0.305.
In the case of `CC1CCCN(C(=O)COC(=O)c2ccc[nH]c2=O)C1` (centres undefined) it was 0.0234; in that of `CC(=S)c1c(C)cc2cc(C)ccn12`, -0.235; in that of `Cc1ccc(C(C(=O)NC2CCCC2)N(C(=O)Cc2cccs2)c2cccc(C)c2C)o1` (centres undefined), -0.0917.
As to `CCCCCCCCCCSc1n[nH]c(NC(C)=O)n1`, the z-score was -0.0883.
Turning to `Cc1[nH]n(C(N)=S)c(=O)c1N=Nc1ccc(S(=O)(=O)N2CCCCCC2)cc1`, the z-score worked out at 0.00773.
`CC1CCCCC1NC(=O)C1CC=CCC1C(=O)O` (centres undefined) registered a z-score of -0.15.
Under `CCCCn1[nH]c(-c2ccccc2)cc1=O` stands -0.279.
Under `N#CC(C#N)=Cc1cc2ccccc2nc1N1CCOCC1` stands -0.253; under `COc1cc2cnncc2cc1OC`, active: 3.21.
The compound `O=C(CCC(=O)c1cccs1)Nc1ccc(F)c(F)c1F` showed a z-score of 0.32.
In the case of `CCOc1cc(/C=C/c2cc(C(=O)O)c3ccccc3n2)ccc1O` it was -0.427; in that of `CCn1c(SCC(=O)Nc2cc(C)on2)nnc1-c1cccs1`, 0.713.
The compound `COc1cc2cc(Br)cc(Br)c2nc1C` returned a z-score of 0.329.
In turn, `CCOC(=O)c1c(-c2ccc(-c3ccccc3)cc2)csc1NC(=O)c1cccc(N2C(=O)CCC2=O)c1` registered a z-score of -0.196.
With `COc1cc2[nH]c(=O)n(Cc3ccccc3Cl)c(=O)c2cc1OC`, the z-score was -0.093.
In the case of `O=C1C2C3C=CC(C3)C2C(=O)N1CNc1ccccn1` (centres undefined) it was -0.247.
In the case of `C=CCn1c(SCC(=O)Nc2nc(C)cs2)nnc1C(C)NC(=O)c1ccccc1Cl` (centres undefined) it was 0.00107.
Take `CC(C)(C)c1ccc(-c2nnc3sc(-c4ccccn4)nn23)cc1`: the z-score was -0.355.
In turn, `O=C(Nc1ccccc1)OCN1C(=O)c2ccccc2C1=O` yielded a z-score of -0.2.
Under `O=C(/C=C/c1c(F)cccc1Cl)NCc1ccco1` stands -0.0574; under `COCCNC(=O)C(=O)Nc1ccc(Br)cc1`, -0.315; under `CCOC(=O)c1cnc2ccc(Cl)cc2c1NCCN(C)C`, -0.278.
In the case of `COCCOC(=O)c1sc(=S)n(CCOC)c1N` it was -0.268; in that of `C=CCn1c(C)cc(C(=O)CSc2nc3ccccc3[nH]2)c1C`, -0.0561; in that of `CCOc1ccccc1C1C(C#N)=C(N)SC(N)=C1C#N`, 0.194.
With `O=C(CSc1nnnn1-c1cccnc1)Nc1ccc(OCc2ccccc2)cc1`, the z-score is -0.183.
As to `COc1ccc(Cn2c(C)ccc2C)cc1`, the z-score was 0.0636.
Compound `CC1CN(Cc2ccccc2)c2nc3c(c(=O)n(C)c(=O)n3C)n2C1` (centres undefined) yielded a z-score of -0.166.
`CC1CCN(CCC(=O)Nc2ccc3c(c2)CCC3)CC1` displayed a z-score of 0.34.
On to `CCN(CC)S(=O)(=O)c1cccc(NC(=O)C2SC(=Nc3ccc(C)cc3C)C(C(=O)NC(C)COC)=C2N)c1` (centres undefined), for which the z-score was -0.161.
In the case of `O=C(NCC1OCCc2ccccc21)c1ccc(NC(=O)c2cccc(Br)c2)cc1` (centres undefined) it was -0.693; in that of `c1ccc2oc(C3=NNC(=NC4CC4)SC3)cc2c1`, 0.234; in that of `O=C(COc1ccccc1C(=O)N/N=C\c1ccc(O)c(O)c1)N/N=C/c1ccc(O)c(O)c1`, -0.213.
In the case of `COc1cc2c3c(c1)c(C1=NC(=S)NC1=O)c(O)n3C(C)(C)C=C2C` it was 0.00901.
Take `CN(C)S(=O)(=O)c1cccc(NC(=O)COC(=O)c2cccc(S(=O)(=O)N3CCc4ccccc4C3)c2)c1`: the z-score amounted to 0.242.
The compound `COc1ccc(NS(=O)(=O)c2ccc(N3CCOCC3)c(NC(=O)c3ccccc3Cl)c2)cc1` came in with a z-score of -0.15.
In the case of `CCNc1nc(Oc2ccc(=O)n(-c3ccccc3)n2)nc(N(C)C)n1` it was 0.025; in that of `O=C(Nc1ccc(S(=O)(=O)NCc2cccnc2)cc1)c1ccccc1Cl`, -0.161.
In the case of `COc1ccc(CNC(=O)C2CCCN(S(=O)(=O)c3c(C)nn(C)c3C)C2)cc1` (centres undefined) it was 0.876; in that of `COc1ccc(C(=O)NC(=S)NCCO)cc1Br`, active: 4.72; in that of `CC(C)N(Cc1nc(-c2ccccc2)no1)C(=O)c1ccc(Br)o1`, -0.82.
Under `CCCS(=O)(=O)N1CCN(c2ccccc2F)CC1` stands 0.314; under `Cc1ccc(CCNC(=O)C23CN(Cc4ccccc4)CC2C(c2cccc([N+](=O)[O-])c2)=NO3)cc1` (centres undefined), -0.443; under `O=C(Nc1ccc2c(c1)OCO2)c1ccccc1SCC(=O)N1CCCC1`, -1.45.
On to `O=C(OCc1cc(-c2ccccc2)no1)c1ccc2ccccc2n1`, for which the z-score was -0.167.
`CC(C)(C)c1ccc(C(=O)NNC(=O)Cc2ccccc2)cc1` had a z-score of 0.216.
`O=C(O)CCN1C(=O)c2ccc(NC(=O)CSc3ccccc3)cc2C1=O` came in with a z-score of -0.205.
Turning to `COc1ccc(-c2nnn(CCC(=O)O)n2)cc1`, the z-score is -0.434.
